According to PubChem BioAssay AID445 (National Center for Advancing Translational Sciences (NCATS), 2006):
Among all 110,000 compounds or so, about 40 (0.04%) were called active. The inconclusive results got no clear call from the source; some entries with a clear call stand among them for comparison. Calls follow the shape of the dose curve; as a rule, active = well fitted curve in the direction sought with a large enough effect in the signal ratio (not every such curve was filed as active); inconclusive = small, poorly fitted or top-dose-only effect, or a change in a side signal; inactive = flat fitted curve, though single readings scatter; the % refers to the signal ratio. Potencies of inconclusive entries are doubtful fits and often do not repeat.

Assay: IkB Signaling;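 as to IkBa stabilization activation: 0% = basal untreated cells and 100% = reference inhibitor full response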
Settings: ABC-DLBCL IkBa-CBG/CBR dual luciferase ratio (green luciferase fused to IkBa over red control in OCI-Ly3 lymphoma cells), 4 h; IkBa stabilization activation: at 57.1 µM (top of the series), scaled: untreated 0%, proteasome inhibitor 100% unless noted
Procedure, shortened: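 Curves were fitted separately to fusion (green), unfused (red) and ratio luminescence, then classed by r2, magnitude and activity. Cells: OCI-Ly3, 4 h compound plus doxycycline at 37C; 10 uM MG-132 defined full response.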
Potency is read from the fitted curve at half-maximal effect.

Question: Which IkBa stabilization activation does the source give for COc1cccc(C2c3c(-c4ccccc4O)n[nH]c3C(=O)N2CCc2ccc(OC)c(OC)c2)c1 (stereo unspecified) here?
Answer: inconclusive: -2.93% [signal inhibitor]

Question: With CCOC(=O)c1c(NC(=O)COc2cccc(C(F)(F)F)c2)sc2c1CCCCC2 as the compound, how does the IkBa stabilization activation read?
Answer: inactive

Question: For CCOc1nc(-c2ccc(C)cc2)ccc1-c1noc(-c2ccccc2F)n1, which IkBa stabilization activation is on record?
Answer: inactive

Question: Which IkBa stabilization activation does the source give for CCc1ccc(-c2nc(-c3cc4ccccc4oc3=O)sc2C)cc1 here?
Answer: inactive

Question: With Cc1ccc(Sc2c(C(=O)NCc3ccccc3C)[nH]c3ccccc23)cc1 as the compound, how does the IkBa stabilization activation read?
Answer: inconclusive: 1.03% [signal inhibitor]

Question: Which IkBa stabilization activation does the source give for COc1cc(NC(=O)c2cnc3c(-c4ccc(F)cc4)c(C)nn3c2C)cc(OC)c1 here?
Answer: inconclusive: 5.59% [signal inhibitor]

Question: With CCn1c2ccccc2c2nnc(SCC(=O)Nc3ncccn3)nc21 as the compound, how does the IkBa stabilization activation read?
Answer: inactive

Question: Which IkBa stabilization activation does the source give for CC1=C(/C=C/C(C)=C/C=C/C(C)=C/C=O)C(C)(C)CCC1 here?
Answer: inconclusive: 9.94% [signal activator]

Question: Which IkBa stabilization activation does the source give for C/C=C/Cn1c(SCCCc2ccccc2)nc2c1c(=O)[nH]c(=O)n2C here?
Answer: inconclusive: -1.68% [signal inhibitor]

Question: Which IkBa stabilization activation does the source give for Cc1ccc(-c2nc3ccc(Cl)cn3c2Nc2ccc3c(c2)OCCO3)s1 here?
Answer: inconclusive: 0.327% [signal inhibitor]

Question: With Cc1ccc(NC2=Nc3ccccc3CS2)cc1 as the compound, how does the IkBa stabilization activation read?
Answer: inactive

Question: With CCOc1ccc(CCNC(=O)Cn2ncn3c(cc4ccccc43)c2=O)cc1OCC as the compound, how does the IkBa stabilization activation read?
Answer: inactive

Question: For CCCOc1ccc(CN(C(=O)c2nc(SC(C)C)ncc2Cl)C2CCS(=O)(=O)C2)cc1 (stereo unspecified), which IkBa stabilization activation is on record?
Answer: inconclusive: 1.6% [signal inhibitor]

Question: For CSc1ccc(CCNC(=O)CCc2c(C)nc3cc(-c4ccccc4)nn3c2C)cc1, which IkBa stabilization activation is on record?
Answer: inconclusive: 15.4% [signal inhibitor]

Question: With N#Cc1ccccc1Cn1c(=O)n(Cc2ccc(C(=O)NC3CCN(Cc4ccccc4)CC3)cc2)c(=O)c2ccccc21 as the compound, how does the IkBa stabilization activation read?
Answer: inactive

Question: With O=C(Nc1c(C(=O)Nc2cccc(F)c2)oc2ccccc12)c1cc2ccccc2o1 as the compound, how does the IkBa stabilization activation read?
Answer: inconclusive: 2.29% [signal inhibitor]

Question: With Fc1ccc(-c2nnc(-c3ccc(Cl)cc3)o2)cc1 as the compound, how does the IkBa stabilization activation read?
Answer: inactive

Question: With CCc1cc2c(NCc3ccco3)ncnc2s1 as the compound, how does the IkBa stabilization activation read?
Answer: inconclusive: 6.44% [signal inhibitor]

Question: For COc1cc2[nH]c(=O)n(CCCCCC(=O)NCCc3ccccc3)c(=O)c2cc1OC, which IkBa stabilization activation is on record?
Answer: inconclusive: 6.96% [signal inhibitor]

Question: With COc1ccc(CCNC(=O)CCCCCn2c(=O)[nH]c3cc(OC)c(OC)cc3c2=O)cc1OC as the compound, how does the IkBa stabilization activation read?
Answer: inconclusive: -1.77% [signal inhibitor]

Question: With CCOC(=O)c1cccc(NC(c2nnc(-c3ccccc3)o2)c2ccccc2F)c1 (stereo unspecified) as the compound, how does the IkBa stabilization activation read?
Answer: inconclusive: 2.79% [signal inhibitor]

Question: For CCOc1ccc(N2C(=O)CC(/C=C3/N(C)c4ccccc4C3(C)C)C2=O)cc1 (stereo unspecified), which IkBa stabilization activation is on record?
Answer: inactive

Question: Which IkBa stabilization activation does the source give for Cc1ccc2c(c1)c(=O)c(C(=O)c1ccncc1)cn2CC(=O)Nc1ccccc1Cl here?
Answer: inactive

Question: With CCc1ccc(NC(=O)Cn2c(=O)oc3cc(S(=O)(=O)NCc4ccccc4)ccc32)cc1 as the compound, how does the IkBa stabilization activation read?
Answer: inconclusive: 0.104% [signal inhibitor]

Question: Which IkBa stabilization activation does the source give for Cc1ccc(CNC(=O)C2CCCN(c3nnc(-n4c(C)ccc4C)s3)C2)cc1 (stereo unspecified) here?
Answer: inconclusive: 6.91% [signal inhibitor]

Question: For O=C(O)[C@@H]1[C@@H](C(=O)NCc2cccnc2)[C@@H]2C=C[C@@H]1O2, which IkBa stabilization activation is on record?
Answer: inactive: -0.133% [at 11.4 µM, scaled: untreated 0%, proteasome inhibitor 100%]

Question: With CCC(c1nnnn1CCc1ccccc1)N(Cc1ccco1)Cc1cc2c(C)ccc(C)c2[nH]c1=O (stereo unspecified) as the compound, how does the IkBa stabilization activation read?
Answer: inconclusive: 5.67% [signal inhibitor]

Question: Which IkBa stabilization activation does the source give for COc1ccc(NC(=O)CSc2nc(O)c(C/C=C/c3ccccc3)c(=O)[nH]2)cc1 here?
Answer: inconclusive: 13.2% [signal inhibitor]

Question: Which IkBa stabilization activation does the source give for O=c1c(-c2ccc(Cl)cc2)nc2cnc(N3CCOCC3)nc2n1Cc1ccc(F)cc1 here?
Answer: inactive: -1.1% [at 11.4 µM, scaled: untreated 0%, proteasome inhibitor 100%]

Question: With CCOC(=O)C(C(=O)N1CCOCC1)C1CCCCC1 (stereo unspecified) as the compound, how does the IkBa stabilization activation read?
Answer: inconclusive: 7.72% [signal inhibitor]

Question: Which IkBa stabilization activation does the source give for C=Cc1ccc(Cn2c(=O)n(-c3ccc(C)cc3)c(=O)c3c2c2cc(OC)ccc2n3C)cc1 here?
Answer: inactive

Question: With O=C(NCc1ccccc1)C1CCN(C(=O)c2cnn(-c3ccccc3)c2-n2cccc2)CC1 as the compound, how does the IkBa stabilization activation read?
Answer: inconclusive: -1.35% [signal inhibitor]

Question: Which IkBa stabilization activation does the source give for COc1ccc2cc(C(=O)NCc3ccc4c(c3)CCN4C(=O)c3ccc(C)cc3)[nH]c2c1 here?
Answer: inconclusive: 0.646% [signal inhibitor]

Question: With Cn1c(=O)n(Cc2ccccc2)c(=O)c2c1nc1n2CCCN1C1CCCCC1 as the compound, how does the IkBa stabilization activation read?
Answer: inactive

Question: Which IkBa stabilization activation does the source give for COCC(=O)N1CCC[C@@]2(CCN(Cc3nccs3)C2)C1 here?
Answer: inactive: 0.886% [at 11.4 µM, scaled: untreated 0%, proteasome inhibitor 100%]

Question: With CCOc1ccc2nc(N3CCCC(C(=O)NCc4ccccc4Cl)C3)sc2c1 (stereo unspecified) as the compound, how does the IkBa stabilization activation read?
Answer: inactive

Question: Which IkBa stabilization activation does the source give for O=C(NCc1ccccc1Cl)c1ccc(CSCc2cccc(F)c2)o1 here?
Answer: inconclusive: 4.93% [signal inhibitor]

Question: With O=C(O)CCn1cnc2onc(-c3ccccc3Cl)c2c1=O as the compound, how does the IkBa stabilization activation read?
Answer: inactive

Question: Which IkBa stabilization activation does the source give for O=c1c2ccccc2c2ccccc2c(=O)n1Cc1ccco1 here?
Answer: inactive

Question: With O=C(NCc1ccc(Cl)cc1)c1ccc2c(c1)NC(=O)C(CS(=O)(=O)Cc1ccccc1Cl)N2 (stereo unspecified) as the compound, how does the IkBa stabilization activation read?
Answer: inconclusive: -3.41% [signal inhibitor]

Question: With CCN1CCN(Cc2ccc(NC(=O)Nc3ccccc3)cc2)CC1 as the compound, how does the IkBa stabilization activation read?
Answer: inactive

Question: With Cc1cccc(C)c1OC[C@H](C)N as the compound, how does the IkBa stabilization activation read?
Answer: inactive

Question: For CCn1c(=O)c2cc(C(=O)NCCCN(C)Cc3ccccc3)sc2c2ccccc21, which IkBa stabilization activation is on record?
Answer: inconclusive: 1.71% [signal inhibitor]

Question: Which IkBa stabilization activation does the source give for CCN(Cc1ccccc1)C(c1ccncc1)c1nnnn1C(C)(C)C (stereo unspecified) here?
Answer: inactive

Question: With C(=N\c1nc2ccccc2[nH]1)/c1cccs1 as the compound, how does the IkBa stabilization activation read?
Answer: inactive

Question: Which IkBa stabilization activation does the source give for CCc1cccc(NC(=O)Cn2cc(C(=O)c3ccncc3)c(=O)c3cc(C)c(C)cc32)c1 here?
Answer: inconclusive: 1.75% [signal inhibitor]

Question: With COc1ccc(-c2cn3c(C)c(C(=O)NCCN4CCOCC4)sc3n2)cc1 as the compound, how does the Potency read?
Answer: inconclusive: 5.01 µM [signal inhibitor, partial curve]

Question: For COc1ccc(OCCC(=O)OCC(=O)NCc2ccco2)cc1, which IkBa stabilization activation is on record?
Answer: inactive

Question: Which IkBa stabilization activation does the source give for COC(=O)c1cnc(N2CCN(c3ccccc3OC)CC2)c2ccccc12 here?
Answer: inconclusive: 1.46% [signal inhibitor]

Question: For CCOC(=O)c1sc2ccccc2c1S(=O)(=O)NCc1ccc(F)cc1, which IkBa stabilization activation is on record?
Answer: inconclusive: 1.46% [signal inhibitor]

Question: Which IkBa stabilization activation does the source give for CCC(C)NC(=O)c1cc(-c2ccc(OC)cc2)on1 (stereo unspecified) here?
Answer: inconclusive: 12% [signal inhibitor]

Question: For Cc1cccc(-c2nc(CSCC(=O)N3CCN(c4ccccc4)CC3)c(C)o2)c1, which IkBa stabilization activation is on record?
Answer: inactive

Question: Which IkBa stabilization activation does the source give for CC1(C)OC[C@@H]2O[C@H](n3cnc4c(N)nc(Cl)nc43)[C@@H](OS(C)(=O)=O)[C@@H]2O1 here?
Answer: inactive: -0.47% [at 11.4 µM, scaled: untreated 0%, proteasome inhibitor 100%]

Question: With O=c1c(-c2cccc(F)c2)nc2cncnc2n1Cc1ccccc1 as the compound, how does the IkBa stabilization activation read?
Answer: inactive: 0.295% [at 11.4 µM, scaled: untreated 0%, proteasome inhibitor 100%]

Question: With COc1ccc(Nc2nc(N3CCCC3)nc3ccccc23)c(OC)c1 as the compound, how does the IkBa stabilization activation read?
Answer: inconclusive: 2.74% [signal inhibitor]

Question: Which IkBa stabilization activation does the source give for CCOC(=O)c1ccc(NC(=O)CSc2nccn2-c2ccc(OCC)cc2)cc1 here?
Answer: inconclusive: 1.22% [signal inhibitor]

Question: With Cc1cccc(N2CCN(C(=O)Cn3cnc4sc(C)c(S(=O)(=O)N5CCN(c6ncccn6)CC5)c4c3=O)CC2C)c1 (stereo unspecified) as the compound, how does the IkBa stabilization activation read?
Answer: inconclusive: 3.76% [signal inhibitor]

Question: With FC(F)(F)c1cccc(-c2nnn3c2nc(NC2CCCCC2)c2ccccc23)c1 as the compound, how does the IkBa stabilization activation read?
Answer: inconclusive: 5.52% [signal inhibitor]

Question: Which IkBa stabilization activation does the source give for O=C1CCN(S(=O)(=O)c2ccccc2)C2CCCCC12 (stereo unspecified) here?
Answer: inconclusive: -1% [signal inhibitor]

Question: Which IkBa stabilization activation does the source give for CCC(C)NC(=O)C1CCN(C(=O)c2ccc(-n3ccc4ccccc43)s2)CC1 (stereo unspecified) here?
Answer: inconclusive: 17.6% [signal inhibitor]

Question: For COc1ccc(CNC(=O)CSc2nnnn2-c2ccccc2)cc1, which IkBa stabilization activation is on record?
Answer: inactive

Question: For CCc1nc(N)c(C#N)c(-c2cccn2C)c1C, which IkBa stabilization activation is on record?
Answer: inactive

Question: For COc1ccc(NC(=O)C(C)n2nnc3sc(-c4ccccc4)cc3c2=O)cc1Cl (stereo unspecified), which IkBa stabilization activation is on record?
Answer: inconclusive: 17.2% [signal inhibitor]

Question: Which Potency does the source give for COc1cccc(NC(=O)C(=O)NCCc2csc(-c3ccc(C(F)(F)F)cc3)n2)c1 here?
Answer: inconclusive: 6.31 µM [signal inhibitor, partial curve]

Question: Which IkBa stabilization activation does the source give for CCCOc1ccc2oc(=O)c3c(c2c1)CCCN3C(=O)CN(C)Cc1ccccc1 here?
Answer: inconclusive: 2.2% [signal inhibitor]

Question: With CCCCOc1ccccc1C(=O)Nc1nonc1-c1ccccc1 as the compound, how does the IkBa stabilization activation read?
Answer: inactive

Question: Which IkBa stabilization activation does the source give for Cc1cccc(N(C)c2nc3ccc(C)cc3n3cnnc23)c1 here?
Answer: inconclusive: 13% [signal inhibitor]

Question: With CC(C)CC(=O)NCC1(N(C)C)CCCCC1 as the compound, how does the IkBa stabilization activation read?
Answer: inactive

Question: With O=C(O)/C(=C\c1ccccc1)Cc1ccccc1 as the compound, how does the IkBa stabilization activation read?
Answer: inactive: -0.673% [at 11.4 µM, scaled: untreated 0%, proteasome inhibitor 100%]

Question: Which IkBa stabilization activation does the source give for CN(Cc1ccccc1)C(=O)C1CCN(Cc2ccc(F)cc2)CC1 here?
Answer: inactive

Question: With CCCCOC(=O)c1[nH]c2c(c1C)C(=O)CC(c1cc(OC)c(OC)c(OC)c1)C2 (stereo unspecified) as the compound, how does the IkBa stabilization activation read?
Answer: inconclusive: 11.9% [signal inhibitor]
